Here are results for 61 sequences from the supplement of paper PMC3724861.

This is one part of the list.

The subject of the experiment is T1, Caupolican (Caup) homeodomain DNA-binding domain.
T1 sequence: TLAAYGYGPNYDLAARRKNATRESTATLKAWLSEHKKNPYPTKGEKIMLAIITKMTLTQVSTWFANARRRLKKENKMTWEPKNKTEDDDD
As to the kind of experiment: PBM E-score (8-mer, recovered from the published 9-mer minima) (E-score (dimensionless, -0.5 to 0.5)); Drosophila protein; higher = stronger relative binding preference, active = 0.31 or more. The gist of the method: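 Caup's homeodomain DNA-binding domain (residues 214-303) was produced by in vitro transcription and translation and applied at 100 nM to custom-designed protein binding microarrays. Each value is an enrichment score giving relative binding preference for a short DNA word; higher means stronger. Published 9-mer scores were the minimum of their two constituent 8-mer scores, and the 8-mer values were recovered from those minima. A cutoff of 0.31 marks candidate binding sequences.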
Take GCCCCGTA: the “PBM E-score” value was inactive: -0.155.
Turning to CAACCCAA, the “PBM E-score” value was inactive: 0.0477.
Consider GGCCACTA, for which the “PBM E-score” value was inactive: -0.098.
For the sequence TGCCCACA, the “PBM E-score” value was inactive: -0.0755.
As for GGTTGGAA, the “PBM E-score” value was inactive: -0.127.
Consider ACCAGGCT, for which the “PBM E-score” value is inactive: -0.045.
In the case of AGTCGCAG, the “PBM E-score” value was inactive: -0.185.
For TCCTACAA the value was inactive: 0.207; for ATTCCATA, inactive: 0.0634; for CCACCATC, inactive: -0.132.
CGCCCGAA: the “PBM E-score” value was inactive: -0.106.
Take AAACTCAG: the “PBM E-score” value is inactive: -0.0185.
In the case of AAATGCTC, the “PBM E-score” value is inactive: -0.0227.
On to AGCAATTC, for which the “PBM E-score” value was inactive: -0.00694.
As to AGGGCGCG, the “PBM E-score” value is inactive: -0.268.
For GATGAAAA the value was inactive: 0.0936; for CTTCAACA, inactive: 0.225.
As to CCTCAGTC, the “PBM E-score” value was inactive: -0.107.
On to AAAAAAAG, for which the “PBM E-score” value was inactive: -0.0436.
As for AAAACACA, the “PBM E-score” value is inactive: 0.216.
As to AAGTCGAC, the “PBM E-score” value is inactive: 0.0593.
Turning to AGGAGCCC, the “PBM E-score” value is inactive: -0.258.
CCTCGGCG: the “PBM E-score” value was inactive: -0.163.
Turning to AACGGTCG, the “PBM E-score” value was inactive: -0.0935.
TGGGCTAA: the “PBM E-score” value was inactive: -0.126.
Take AAAATTTC: the “PBM E-score” value was inactive: -0.0281.
On to ACGTCAAT, for which the “PBM E-score” value was inactive: -0.00307.
For CACCGCGA the value was inactive: -0.0295; for ATGCAGCA, inactive: -0.00107.
CAACGGTG: the “PBM E-score” value is inactive: -0.0109.
Regarding ACCGTCCA, the “PBM E-score” value is inactive: -0.166.
With CAACTATA, the “PBM E-score” value is inactive: 0.129.
Turning to AAAACGCT, the “PBM E-score” value was ≥ 0.0147.
AGGAATTC: the “PBM E-score” value was inactive: -0.0383.
As for TGAATTAA, the “PBM E-score” value was inactive: 0.101.
Turning to CCTTCACC, the “PBM E-score” value is inactive: -0.199.
For AGATTGGG, the “PBM E-score” value was inactive: -0.00878.
Then ACGGGGTG, with inactive: -0.0587; and ACAAGCTA, with inactive: 0.275.
ACGAGCCG: the “PBM E-score” value was inactive: -0.0432.
For the sequence CGACGGCC, the “PBM E-score” value was inactive: -0.133.
For the sequence TCTTATCA, the “PBM E-score” value is ≥ 0.164.
Turning to AATGTTTA, the “PBM E-score” value was inactive: 0.213.
In the case of CGATTTAC, the “PBM E-score” value was inactive: 0.0251.
As to ATTACCCA, the “PBM E-score” value was inactive: 0.103.
As to GATCGCCC, the “PBM E-score” value is inactive: -0.0925.
Consider ACTAGGTC, for which the “PBM E-score” value is inactive: 0.038.
Regarding ATCCCCAA, the “PBM E-score” value was ≥ 0.0283.
With ATAGAAAT, the “PBM E-score” value is inactive: 0.114.
On to CGACTATC, for which the “PBM E-score” value is inactive: -0.0393.
Then CATACTTA, with inactive: 0.153.
For GGCTCTCA, the “PBM E-score” value was inactive: -0.209.
Turning to CCCTCCGA, the “PBM E-score” value is inactive: -0.235.
On to AATCTGAC, for which the “PBM E-score” value was inactive: 0.138.
AGTGATTA: the “PBM E-score” value was inactive: 0.1.
For the sequence TAATGAGA, the “PBM E-score” value is inactive: 0.0965.
As for CCTGGTCC, the “PBM E-score” value is inactive: -0.159.
With TAGGGCGA, the “PBM E-score” value was inactive: -0.0721.
Take CAAGTCTA: the “PBM E-score” value is inactive: 0.0856.
Then CGCGCAGC, with inactive: -0.165; and CTCTGATA, with inactive: 0.0146.
